# Reference: paper PMC4336329 (PLoS ONE, 2015)
# The whole screen tested about 310,000 compounds, of which about 14,000 (4.5%) showed an effect of 50% or more. Effects have a minus sign here. Some of the results follow.
# Biological target: human ether-à-go-go-related gene (hERG) potassium channel (human, UniProt Q12809)
# Experiment: primary screen, population patch clamp on CHO cells stably expressing hERG
# 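Further: peak tail current of the secondary pulse compared with the same well before compound.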
# human ether-à-go-go-related gene (hERG) potassium channel, sequence (Q12809 whole entry, looked up): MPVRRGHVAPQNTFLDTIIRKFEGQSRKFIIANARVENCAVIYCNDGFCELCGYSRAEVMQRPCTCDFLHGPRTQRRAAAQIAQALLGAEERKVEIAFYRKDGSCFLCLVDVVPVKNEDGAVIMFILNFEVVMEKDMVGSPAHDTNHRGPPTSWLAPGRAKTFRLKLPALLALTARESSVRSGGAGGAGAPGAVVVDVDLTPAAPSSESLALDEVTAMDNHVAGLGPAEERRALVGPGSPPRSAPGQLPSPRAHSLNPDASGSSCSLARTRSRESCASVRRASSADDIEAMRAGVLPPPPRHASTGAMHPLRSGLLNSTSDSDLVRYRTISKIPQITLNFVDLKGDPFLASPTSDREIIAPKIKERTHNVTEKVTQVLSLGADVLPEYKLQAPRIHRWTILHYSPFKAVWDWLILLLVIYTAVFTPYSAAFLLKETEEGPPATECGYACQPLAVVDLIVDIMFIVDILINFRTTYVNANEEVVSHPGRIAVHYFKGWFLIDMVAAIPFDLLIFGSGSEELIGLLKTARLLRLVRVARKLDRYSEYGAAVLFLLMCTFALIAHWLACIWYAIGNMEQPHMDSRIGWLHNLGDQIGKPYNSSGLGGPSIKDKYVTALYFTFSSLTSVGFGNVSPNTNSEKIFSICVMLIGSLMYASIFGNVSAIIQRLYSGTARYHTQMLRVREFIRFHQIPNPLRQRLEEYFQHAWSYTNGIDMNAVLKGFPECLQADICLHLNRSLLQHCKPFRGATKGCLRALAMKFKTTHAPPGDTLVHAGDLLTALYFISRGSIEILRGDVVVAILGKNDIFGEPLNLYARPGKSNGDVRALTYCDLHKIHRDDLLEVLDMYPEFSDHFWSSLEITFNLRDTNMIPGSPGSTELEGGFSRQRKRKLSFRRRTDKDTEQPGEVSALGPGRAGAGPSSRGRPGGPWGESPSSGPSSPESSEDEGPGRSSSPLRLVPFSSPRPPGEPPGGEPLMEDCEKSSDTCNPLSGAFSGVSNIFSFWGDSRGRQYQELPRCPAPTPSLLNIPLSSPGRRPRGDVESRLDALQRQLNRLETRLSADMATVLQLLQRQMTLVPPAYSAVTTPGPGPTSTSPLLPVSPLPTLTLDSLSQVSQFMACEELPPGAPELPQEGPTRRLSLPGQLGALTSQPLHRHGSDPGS
row,SMILES,"hERG current change (%, negative = inhibition) at 10uM"
1,C/C=C\C(=O)Nc1cccc(C2=NOC3(C2)C[C@@H](C(N)=O)N(C(=O)CCCCC)C3)c1 (stereo partly drawn),-31%
2,Cl.Nc1cccc2c3c(oc12)CCCC3,15.3%
3,O=S(=O)(Nc1cc(C(F)(F)F)ccc1N1CCOCC1)c1ccc2ccccc2c1,-7.3%
4,Cc1cccc(C2Nc3ccccc3C(=O)N2CCc2ccccc2)n1 (stereo not drawn),-12.2%
5,CC12CC(c3ccccc3O1)N(C(=O)c1ccco1)C(=O)N2c1ccccc1 (stereo not drawn),-4.58%
6,CSc1ccc(CN2CCN(CCC(C)C)C(CCO)C2)cc1 (stereo not drawn),-63.3%
7,CCOc1ccc(S(=O)(=O)N2CCN(C(=O)c3cc4c(s3)CCCC4)CC2)cc1,-7.25%
8,CN(CC(=O)N1CCC(C(N)=O)CC1)S(=O)(=O)c1ccc2ccccc2c1,12.3%
9,O=c1oc2cc(S(=O)(=O)NCCCO)ccc2c2ccc(S(=O)(=O)NCCCO)cc12,16.1%
10,COc1c2ccoc2c(OC[C@@H](OC(C)=O)C(C)(C)O)c2oc(=O)ccc12,19.9%
11,CN(CC(=O)Nc1ccccc1Cl)CC(=O)c1c(N)n(Cc2ccccc2)c(=O)n(C)c1=O,-1.4%
12,CC(C)Cn1cnc2c1c(=O)n(CC(=O)O)c(=O)n2Cc1ccccc1,21.8%
13,O=C(O)C(=O)O.S=C(NCCc1ccccc1)N1CCN(Cc2ccccc2)CC1,0.0203%
14,Cc1ccc2c(c1)N(S(=O)(=O)c1ccc3c(c1)NC(=O)CC(=O)N3)CCO2,9.92%
15,COc1cc(/C=C/C(=O)OCC(=O)Nc2ccc(S(N)(=O)=O)cc2)ccc1O,0.602%
16,Cc1ccc(C(=O)Nc2ccncc2)cc1[N+](=O)[O-],6.17%
17,CC1CC(C)CN(S(=O)(=O)c2ccc3oc(=O)ccc3c2)C1 (stereo not drawn),-59.5%
18,CCc1ccc(NS(=O)(=O)c2c(C)noc2C)cc1,-10.3%
19,COc1ccc(CNC(=O)Cn2cc([N+](=O)[O-])cn2)cc1,16.1%
20,CCOc1ccc(N(CC(=O)NN=C2CCN(C)CC2)S(C)(=O)=O)cc1,11.7%
21,CC(=O)Nc1ccc(S(=O)(=O)NCC2CCC(C(=O)N3CCCCC3)CC2)cc1 (stereo not drawn),11.5%
22,Cc1nc2ccc(NC(=O)c3oc4ccc(F)cc4c3C)cc2s1,1.43%

row,SMILES,"hERG current change (%, negative = inhibition) at 10uM"
1,CC(C)(O)c1cc(=O)sc2nc3ccccc3n12,-22.9%
2,CCc1ccccc1NC(=O)CN(C)C(=O)CSc1nnc(Nc2cccc(C)c2)s1,-1.7%
3,C#CCOc1ccc(C2C3=C(CCCC3=O)N(CC(=O)O)C3=C2C(=O)CCC3)cc1Br,15.6%
4,CCC1c2ccc(C)n2CCN1C(=O)Nc1cc(Cl)ccc1OC (stereo not drawn),-4.1%
5,COC(=O)C1=C(c2ccc(OC(F)(F)F)cc2)C[C@@H]2CC[C@H]1N2C(=O)N1CCCC1,-47.9%
6,O=[N+]([O-])c1c(Nc2ccccn2)cc(Cl)c2nonc12,9.59%
7,COc1ccccc1-n1c(Cc2ccccc2)nc2ccccc2c1=O,-3.38%
8,CCOC(=O)c1c(C)n(C)c2c(C)cc(O)c(OC(C)=O)c12,4%
9,O=C(CN1CCOCC1)NC1CC2CCC1C2 (stereo not drawn),5.59%
10,NC(N)=N/N=C/c1ccc2cccc(OCc3ccccc3)c2n1,-45.5%
11,CC(=O)NC(Cc1ccc(N(CCCl)CCCl)cc1)C(=O)NC(CC(C)C)C(=O)O (stereo not drawn),14.1%
12,CC(NC(=O)c1ccc(Cl)cc1)c1nnc(SCC(=O)NC2=NCCS2)n1C (stereo not drawn),22.3%
13,CC1(C)Cc2c(sc(NC(=O)c3ccco3)c2C(=O)O)CO1,-3.94%
14,CS(=O)(=O)c1ccc(C(=O)NC2CCOC2=O)cc1 (stereo not drawn),-13.6%
15,CC(C)(C)c1cc(C(=O)Nc2cccnc2)cc(C(=O)Nc2cccnc2)c1,-11.5%
16,CCC1(COC(NC(=O)c2cccnc2)(C(F)(F)F)C(F)(F)F)COC1,13.3%
17,Cc1ccc(NC(=O)CN(C)C(=O)COC(=O)C(C)(C)Oc2ccc(Cl)cc2)cc1,21.6%
18,COC(=O)C1C(=O)CC(C)(O)C(C(=O)OC)C1c1ccc2c(c1)OCO2 (stereo not drawn),12.9%
19,Cc1ccc(Nc2nc(N)nc(CN3CCN(Cc4ccc5c(c4)OCO5)CC3)n2)c(C)c1,-76.9%
20,COCCN(C(=O)CSCc1ccc(C)cc1)c1c(N)n(CC(C)C)c(=O)[nH]c1=O,0.632%
21,O=C(c1ccco1)N1CCN(C(=O)c2cc(-c3ccccc3F)no2)CC1,-15.8%
22,O=C(Nc1cccs1)Nc1ccc(Br)cc1F,10.2%

row,SMILES,"hERG current change (%, negative = inhibition) at 10uM"
1,CCOC(=O)CSC1=C(C#N)C(c2ccco2)C(C(=O)Nc2cccc(C(F)(F)F)c2)=C(C)N1 (stereo not drawn),-10.7%
2,O=C(Nc1ccc(S(=O)(=O)Nc2ccnn2-c2ccccc2)cc1)C(F)(F)F,12%
3,COc1cccc(NC(=O)c2cccc(N3C(=O)C4C5C=CC(C5)C4C3=O)c2)c1 (stereo not drawn),-38.4%
4,C/C(=N\NC(=O)Cc1c(C)[nH][nH]c1=O)c1ccc2ccccc2c1,2.35%
5,CCCCC(=O)NCc1ccc2c(c1)cc(C)n2C,-0.63%
6,Cc1c(NC(=O)C(C)OC(=O)c2sc3ccccc3c2Cl)c(=O)n(-c2ccccc2)n1C (stereo not drawn),-21.7%
7,Cn1c(=O)c2[nH]c(N3CCCCC3)nc2n(C)c1=O,6.41%
8,CCOC(=O)c1nnn(-c2nonc2-n2cccc2)c1-c1cccc([N+](=O)[O-])c1,-5.63%
9,CN(C)CCCN(C(=O)c1ccc(C(=O)c2ccccc2)cc1)c1nc2ccc(F)cc2s1,-74.9%
10,O=c1[nH]c2ccccc2cc1-c1noc(-c2cccnc2)n1,2.74%
11,COc1ccc(CNC(=O)Cc2cn(C)c3ccccc23)c(OC)c1,-1.71%
12,COc1ccc(-n2nc3c(c2NC(=O)COc2ccccc2)CS(=O)C3)cc1 (stereo not drawn),-28.2%
13,COc1ccc(C(=O)C(c2ccccc2)N2CCOCC2)cc1.Cl (stereo not drawn),-2.36%
14,COc1ccc(/C(N)=N/OC(=O)C2CCC(=O)N2S(=O)(=O)c2ccc(C)cc2)cc1OC (stereo not drawn),-17.4%
15,COc1ccc(S(=O)(=O)N2CCCOC2CNC(=O)C(=O)NCCc2ccco2)cc1C (stereo not drawn),-4.4%
16,CCOc1cc(/C=C/C(=O)OCC(=O)NCc2ccco2)cc(Cl)c1OC,-29.9%
17,CC1(C)CC(=O)C=C(NC2CCCCCC2)C1,-1.93%
18,CC(C)C(=O)N1CCN(c2ccccc2NC(=O)COc2ccc(C3CCCCC3)cc2)CC1,-4.96%
19,Cc1cc(-c2nnc3n2N=C(c2ccccc2Br)CS3)n[nH]1,-2.51%
20,O=C(O)[C@H]1CCCC[C@H]1C(=O)Nc1ccc(Nc2ccccc2)cc1,4.15%
21,O=C1CCCCN1CCCC(=O)N1CCCC(Nc2ccc(F)c(F)c2)C1 (stereo not drawn),-27.3%
22,Cc1cc2ccccc2c(=O)n1CC(=O)NCC1COc2ccccc2O1 (stereo not drawn),0.464%

row,SMILES,"hERG current change (%, negative = inhibition) at 10uM"
1,COc1ccc(N2Cc3cccc(C(=O)NC(C)CCc4ccco4)c3C2=O)cc1 (stereo not drawn),-25.8%
2,CN(CC(=O)Nc1cc(Cl)ccc1Cl)C1CCS(=O)(=O)C1 (stereo not drawn),-3.19%
3,Cc1ccc(C(=O)CSc2nnc(-c3ccc4[nH]c(C)c(C)c4c3)o2)cc1C,8.42%
4,Cc1nc(CNC(=O)c2cc(COc3c(F)cccc3F)on2)cs1,-3.86%
5,COc1ccc(/C=N/Nc2nncn2N)cc1Br,18%
6,Cc1nc2sc(C(N)=O)c(N)c2c2c1CCCC2,0.822%
7,O=C(Nc1ccccc1)N1CCC(C(=O)N2CCN(Cc3ccccc3)CC2)CC1,-26.1%
8,CC(=O)c1ccc(OCC(=O)N2CCCC(Nc3ccc(C)c(C)c3)C2)cc1 (stereo not drawn),-1.47%
9,O=C(O)C1C2CCC(C2)C1C(=O)NCCc1ccccc1 (stereo not drawn),-2.47%
10,COc1ccccc1NC(=O)Cc1ccc(-c2ccccc2)cc1,13.6%
11,CN(C)C(=C(C#N)C#N)N1CCN(c2ccc(Cl)c(Cl)c2)CC1,-63.2%
12,Cn1ccnc1-c1ccc(-c2nccn2C)cc1,9.89%
13,COc1cc(OC)cc(C(=O)NCC(=O)OCC(=O)/C=C2/N(C)c3ccccc3C2(C)C)c1,2.69%
14,Cc1ccc(-n2c(=O)cc(NCc3cccnc3)[nH]c2=O)cc1,-65.5%
15,C=CCC1c2cccc(C(=O)O)c2C(=O)N1c1ccc(Cl)cc1 (stereo not drawn),-5.49%
16,CCn1c(SCc2c(F)cccc2Cl)nnc1-c1ccco1,-16.4%
17,O=C(Nc1ccncc1)c1cccs1,-5.03%
18,c1ccc2c(c1)Sc1ccccc1N2CC1CN2CCC1CC2 (stereo not drawn),-53.1%
19,CCc1nnc(NC(=O)C2CCN(S(=O)(=O)Cc3ccccc3)CC2)s1,3.78%
20,C=CCN(CC(=O)NC1CCS(=O)(=O)C1)S(=O)(=O)c1ccccc1C(F)(F)F (stereo not drawn),54.9%
21,Cc1ccccc1-n1c(=O)n(Cc2ccccc2)c(=O)c2[nH]cnc21,-4.59%
